A collection of fitness landscapes (doi:10.1016/j.celrep.2020.107928)
Whole data set: some 81,000 sequences, median “one-hybrid fitness for binding parS DNA” near -0.17, cut for the highest 2% near 0.51. The list shows a part of the results.

B1: Caulobacter ParB omega fusion; a variant is named by its letters at X, in order, B8GW30 (parent)
chain: MESVVVGEPGMSEGRRGLGRGLSALLGEVDAAPAQAPGEQLGGSREAPIEILQRNPDQPRRTFREEDLEDLSNSIREKGVLQPILVRPSPDTAGEYQIVAGERAWRAAQRAGLKTVPIMVRELDDLAVLEIGIIENVQRADLNVLEEALSYKVLMEKFERTQENIAQTIGKSXSHVANXMRLLXLPDEVQSYLVSGELTAXHARAIAAAADPVALAKQIIEGGLSVRETEALARKAPNLSAGKSKGGRPPRVKDTDTQALESDLSSVLGLDVSIDHRGSTGTLTITYATLEQLDDLCNRLTRGI

Variants of: B1
Experiment: one-hybrid fitness for binding parS DNA (scaled: cognate 1, non-cognate 0); higher = stronger binding
Conditions: with parS DNA site
Method in brief: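 In E. coli USO, a HIS3 reporter with its site placed 19 bp from the promoter was used to select Caulobacter ParB variants randomised at four specificity codons. Growth lasted 48 hours at 37°C on histidine-free M9 containing 0.1 mM IPTG and 5 mM 3-AT. Fitness was taken as the log change in variant-to-wild-type read ratio from Illumina sequencing of pre- and post-selection plasmids, rescaled between the non-cognate and cognate sites.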

Row | Variant | one-hybrid fitness for binding parS DNA
1 | PAMC | ≤ 0.2
2 | DTPC | ≤ 0.2
3 | RCAL | ≤ 0.2
4 | PCTQ | ≤ 0.2
5 | PMPS | ≤ 0.2
6 | SWPR | ≤ 0.2
7 | ITVG | ≤ 0.2
8 | TLIW | ≤ 0.2
9 | TPNR | ≤ 0.2
10 | IHRT | ≤ 0.2
11 | GPIE | ≤ 0.2
12 | AEHR | ≤ 0.2
13 | WGGS | ≤ 0.2
14 | RLTK | ≤ 0.2
15 | RMTS | 0.975
16 | IYKM | ≤ 0.2
17 | SQNC | ≤ 0.2
18 | SCCG | ≤ 0.2
19 | NGNA | ≤ 0.2
20 | QRFD | ≤ 0.2
21 | DEPW | ≤ 0.2
22 | VMAH | ≤ 0.2
23 | LRIA | ≤ 0.2
24 | VSMP | ≤ 0.2
25 | KNHT | ≤ 0.2

Row | Variant | one-hybrid fitness for binding parS DNA
26 | NDRG | ≤ 0.2
27 | HNRT | ≤ 0.2
28 | CCPG | ≤ 0.2
29 | SQQN | ≤ 0.2
30 | RTPM | ≤ 0.2
31 | FMDL | ≤ 0.2
32 | FNRV | ≤ 0.2
33 | LTFL | ≤ 0.2
34 | QTMN | ≤ 0.2
35 | FAPV | ≤ 0.2
36 | ECTN | ≤ 0.2
37 | SGST | ≤ 0.2
38 | SQLS | ≤ 0.2
39 | RGGS | 0.733
40 | MCMG | ≤ 0.2
41 | MDEG | ≤ 0.2
42 | MSAC | ≤ 0.2
43 | IYRI | ≤ 0.2
44 | PLHS | ≤ 0.2
45 | PHNH | ≤ 0.2
46 | DQGY | ≤ 0.2
47 | RSQQ | ≤ 0.2
48 | MGWS | ≤ 0.2
49 | PPAN | ≤ 0.2
50 | YYLR | ≤ 0.2

Row | Variant | one-hybrid fitness for binding parS DNA
51 | IMRY | ≤ 0.2
52 | WDPR | ≤ 0.2
53 | LWDT | ≤ 0.2
54 | DNQC | ≤ 0.2
55 | RRVR | ≤ 0.2
56 | HMPE | ≤ 0.2
57 | YFYG | ≤ 0.2
58 | HREA | ≤ 0.2
59 | AMMT | ≤ 0.2
60 | NSIR | ≤ 0.2
61 | SSRY | ≤ 0.2
62 | SCHH | ≤ 0.2
63 | RHVF | ≤ 0.2
64 | EKTG | ≤ 0.2
65 | PLKL | ≤ 0.2
66 | RYPP | ≤ 0.2
67 | AWHV | ≤ 0.2
68 | NHAG | ≤ 0.2
69 | LVQN | ≤ 0.2
70 | NSQC | ≤ 0.2
71 | ISHH | 0.237
72 | NNEL | ≤ 0.2
73 | YRMS | ≤ 0.2
74 | SVID | ≤ 0.2
75 | TDTW | ≤ 0.2

Row | Variant | one-hybrid fitness for binding parS DNA
76 | QQIK | ≤ 0.2
77 | QAHG | ≤ 0.2
78 | RYCT | 0.852
79 | LWTE | ≤ 0.2
80 | MVEG | ≤ 0.2
81 | EGVC | ≤ 0.2
82 | RWWM | ≤ 0.2
83 | LYAM | ≤ 0.2
84 | QDYT | ≤ 0.2
85 | EDQS | ≤ 0.2
86 | KVEY | ≤ 0.2
87 | FTHK | ≤ 0.2
88 | EHCG | ≤ 0.2
89 | TTWP | ≤ 0.2
90 | GRRV | ≤ 0.2
91 | AVIN | ≤ 0.2
92 | ALVK | ≤ 0.2
93 | RAKT | 0.824
94 | KGTC | ≤ 0.2
95 | MPNR | ≤ 0.2
96 | INPL | ≤ 0.2
97 | VRKA | ≤ 0.2
98 | LGRE | ≤ 0.2
99 | KAAG | ≤ 0.2
100 | LFPG | ≤ 0.2

Row | Variant | one-hybrid fitness for binding parS DNA
101 | RYGM | 0.293
102 | PINP | ≤ 0.2
103 | SSFT | ≤ 0.2
104 | RFLS | 0.997
105 | HQQY | ≤ 0.2
106 | YNRP | ≤ 0.2
107 | AAPP | ≤ 0.2
108 | DDLS | ≤ 0.2
109 | DFLT | ≤ 0.2
110 | DRRP | ≤ 0.2
111 | ITQG | ≤ 0.2
112 | HAGT | ≤ 0.2
113 | RMPR | ≤ 0.2
114 | RITP | ≤ 0.2
115 | TSVG | ≤ 0.2
116 | QKKI | ≤ 0.2
117 | RMLR | ≤ 0.2
118 | NWPR | ≤ 0.2
119 | RIVY | 0.469
120 | RGYR | ≤ 0.2
121 | DNKI | ≤ 0.2
122 | LGWI | ≤ 0.2
123 | TAHQ | ≤ 0.2
124 | PKGC | ≤ 0.2
125 | MILR | ≤ 0.2

Row | Variant | one-hybrid fitness for binding parS DNA
126 | TPIH | ≤ 0.2
127 | RPDE | ≤ 0.2
128 | RWKK | ≤ 0.2
129 | YSTN | ≤ 0.2
130 | TYAS | ≤ 0.2
131 | VFKP | ≤ 0.2
132 | ACSP | ≤ 0.2
133 | HSRV | ≤ 0.2
134 | YKEG | ≤ 0.2
135 | VRQV | ≤ 0.2
136 | ADKV | ≤ 0.2
137 | GMQL | ≤ 0.2
138 | RVIM | 0.261
139 | PAYF | ≤ 0.2
140 | GGQY | ≤ 0.2
141 | TGVK | ≤ 0.2
142 | LPYC | ≤ 0.2
143 | DWKR | ≤ 0.2
144 | MTGS | ≤ 0.2
145 | SDWT | ≤ 0.2
146 | WMDG | ≤ 0.2
147 | RADP | ≤ 0.2
148 | LNPF | ≤ 0.2
149 | YCQD | ≤ 0.2
150 | IGSH | ≤ 0.2

Row | Variant | one-hybrid fitness for binding parS DNA
151 | TFPT | ≤ 0.2
152 | VMDR | ≤ 0.2
153 | VLAA | ≤ 0.2
154 | QFAL | ≤ 0.2
155 | PAPK | ≤ 0.2
156 | PQMK | ≤ 0.2
157 | QPIN | ≤ 0.2
158 | RFDE | ≤ 0.2
159 | RVSA | 0.581
160 | SCRC | ≤ 0.2
161 | STRD | ≤ 0.2
162 | AYTK | ≤ 0.2
163 | GAMC | ≤ 0.2
164 | RPYG | ≤ 0.2
165 | HTDA | ≤ 0.2
166 | GVMG | ≤ 0.2
167 | GFCL | ≤ 0.2
168 | VHCR | ≤ 0.2
169 | VVYN | ≤ 0.2
170 | QCQC | ≤ 0.2
171 | VRYT | ≤ 0.2
172 | VSAC | ≤ 0.2
173 | DLKH | ≤ 0.2
174 | SYLV | ≤ 0.2
175 | SSWC | ≤ 0.2

Row | Variant | one-hybrid fitness for binding parS DNA
176 | VDRT | ≤ 0.2
177 | QYLR | ≤ 0.2
178 | KILT | ≤ 0.2
179 | RLGG | 0.995
180 | MMAM | ≤ 0.2
181 | QMWY | ≤ 0.2
182 | SLTW | ≤ 0.2
183 | NTLC | ≤ 0.2
184 | CCAR | ≤ 0.2
185 | RGRV | ≤ 0.2
186 | ERAR | ≤ 0.2
187 | HPLL | ≤ 0.2
188 | QQRM | ≤ 0.2
189 | PGPD | ≤ 0.2
190 | VPKQ | ≤ 0.2
191 | RETV | ≤ 0.2
192 | IRSY | ≤ 0.2
193 | VVRV | ≤ 0.2
194 | MPQL | ≤ 0.2
195 | ERSW | ≤ 0.2
